Reference: article PMC12040169 (PLOS Biology, 2025)
The other results are listed elsewhere or left out.

system: T1, C. trachomatis L2/434/Bu expressing GFP (CTL2-GFP); design: species or system HeLa; C. trachomatis total inclusion area by high-content imaging, normalised to DMSO; conditions: total inclusion area; 28.5 h, 10 µM; inhibitor
T1 construct: L2/434/Bu GFP intracellular growth in HeLa cells
Procedure, shortened: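 Host cell viability was gauged from Hoechst-stained nuclei counts, while chlamydial growth was taken from total inclusion area and inclusion number per well. Cells were fixed and imaged by high-content microscopy once bulk GFP and resorufin fluorescence had been measured.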

Row | SMILES | % of control remaining
1 | O=[N+]([O-])c1cccc(-c2cc(NCCc3ccccn3)ncn2)c1 [CBK091087] | 120.441
2 | O=S(=O)(Nc1ccc(Cc2ccncc2)cc1)N1CCCC1 [CBK268263] | 87.7897
3 | O=S(=O)(Nc1cccc(Cl)c1Cl)c1ccc(Cl)c(Cl)c1 [CBK017446] | 94.6088
4 | Cc1cc(NS(=O)(=O)c2ccc(Nc3nc(-c4cccs4)cs3)cc2)no1 [CBK262504] | 23.5503
5 | O=C(CSc1nnnn1C1CC1)Nc1ccc(CN2CCOCC2)cc1 [CBK305857] | 30.192
6 | FC(F)(F)c1cccc(OCCOc2nccnc2N2CCNCC2)c1 [CBK014518G] | 57.0642
7 | C#CCOc1cc(Br)c(/C=C(/C#N)c2ccc([N+](=O)[O-])cc2)cc1OCC [CBK266617] | 95.2706
8 | CCOC(=O)c1cnc2cc(C)ccn2c1=O [CBK086650] | 98.1707
9 | c1ccc2c(-c3cc(Nc4ccc5[nH]ccc5c4)ncn3)cccc2c1 [CBK037815] | 12.2313
10 | O=C(/C=C/c1ccccc1)ONC(=O)c1ccc(Cl)cc1 [CBK263702] | 74.8268
11 | Cc1cc2ncc3c(n2n1)CC1CCC3N1Cc1ccc(F)c(F)c1 (stereo not shown) [CBK284378] | 80.2295
12 | O=c1[nH]c(-c2cc(Cc3ccccc3Cl)ccc2O)nc2ccccc12 [CBK291220] | 103.584
13 | CCc1ccc(NS(=O)(=O)c2cnn(CC)c2)cc1 [CBK270314] | 74.1966
14 | Nc1ncc(-c2cccc(F)c2)nc1NCC1CCOCC1 [CBK063860] | 73.0572
15 | O=[N+]([O-])c1ccn(C2CC(O)C(CO)O2)c1 (stereo not shown) [CBK201229] | 84.3176
16 | COc1cc(-c2cnc3[nH]c(=O)n(Cc4ccco4)c3n2)cc(OC)c1OC [CBK064755] | 142.62
17 | Nc1c(Cc2c(Cl)cccc2Cl)c(=O)n2n1CCC2 [CBK088948] | 87.9625
18 | O=C1COc2ccccc2C/C=C/CC2(CCN(CC(=O)N3CCCC3)CC2)CN1 [CBK292126] | 69.4672
19 | Cc1nn(C)cc1-c1cncn1CCOc1ccc(Cl)cc1 [CBK281508] | 112.219
20 | O=C(Cn1ncc2ccccc2c1=O)NNC(=S)NC1CC2CCC1C2 (stereo not shown) [CBK267892] | 88.5414
21 | OCC12COC3c4ccccc4C(OC1)N32 (stereo not shown) [CBK006347] | 99.2653

Row | SMILES | % of control remaining
22 | CC1CCc2c(sc(NC(=O)Cn3cnc([N+](=O)[O-])n3)c2C(N)=O)C1 (stereo not shown) [CBK263064] | 106.592
23 | O=c1nc(NC2CCCCC2)sc2ncccc12 [CBK067024T] | 81.6837
24 | O=C(O)CC1(O)C(=O)N(Cc2ccccc2)c2ccccc21 (stereo not shown) [CBK286673] | 92.2452
25 | O=C(CC1(C(F)(F)F)NCCN1)c1cccc([N+](=O)[O-])c1 [CBK263443] | 79.9499
26 | FC(F)(F)c1nc2ccccc2nc1SCc1cccs1 [CBK103728] | 92.226
27 | CCOc1cc(C=O)ccc1OCc1c(C)no[n+]1[O-] [CBK263449] | 108.706
28 | Cc1ccccc1CN1CCC(O)(c2cccnc2F)CC1 [CBK284376] | 84.1393
29 | O=S(=O)(c1ccccc1)N1CC2(CCNCC2)c2ccccc21 [CBK137413] | 6.75
30 | c1ccc2cc(-c3cnc(N4CCOCC4)c4nccn34)ccc2c1 [CBK091307] | 110.322
31 | COc1c(C(N)=O)c(O)c(OC)c2occc12 [CBK016255] | 44.4008
32 | CSc1cccc(NC(=O)N2CCN(C(=O)C3CCCO3)CC2)c1 (stereo not shown) [CBK043283] | 58.8006
33 | Cc1c(NC(=O)CSc2nnc(-c3ccc4ccccc4n3)s2)c(=O)n(-c2ccccc2)n1C [CBK269341] | 130.125
34 | CCC(C)C(NC(=O)c1ccccc1NC(=O)c1ccc(OC)cc1)C(=O)O (stereo not shown) [CBK296090] | 100.233
35 | CCN1CCC2CCC(C1)N2Cc1ccc(Oc2cnccn2)cc1 (stereo not shown) [CBK304034] | 75.7969
36 | C[C@@H](Nc1nccnc1-c1cccc(F)c1)c1ccccc1 [CBK036733] | 61.6282
37 | Cc1ccc(CC(=O)Nc2nc(Cc3n[nH]c(=S)n3C)cs2)cc1 [CBK296766] | 102.824
38 | CN(C)CCN(C)c1cncc(-c2cccc(C(F)(F)F)c2)n1 [CBK065584] | 99.2836
39 | CC(Cn1cccn1)NCC(=O)N(C)C1(C#N)CCCCC1 (stereo not shown) [CBK305096] | 99.5788
40 | O[C@@H]1C[C@@H](c2nc(-c3ccc4c(c3)OCO4)no2)N(Cc2cc3ccccc3o2)C1 [CBK288868] | 98.0706
41 | CCc1onc(C)c1C(=O)NC(Cc1ccsc1)c1nccs1 (stereo not shown) [CBK285142] | 93.9022
42 | CC(C)[C@@H](CO)Nc1nc(-c2cccc3ccccc23)cnc1N [CBK063725] | 148.963

Row | SMILES | % of control remaining
43 | CCOc1cccc(C(=O)NC(=S)Nc2nc(C)c(C(=O)OC)s2)c1 [CBK092056] | 101.098
44 | CN1CCN(C(=O)C[C@@H]2CCNC[C@@H]2Cc2cc(CC3CCCCC3)on2)CC1 [CBK289151] | 88.3645
45 | CCC1C=CCC(C(=O)O)C1C(=O)Nc1ccc(C(=O)N2CCOCC2)cc1 (stereo not shown) [CBK265798] | 122.658
46 | Cc1cc2c(s1)c1cnn(CC(=O)NC3CCCC3)c(=O)c1n2C [CBK284189] | 50.9344
47 | Cn1c(=O)c2c(nc(CN3CCC(Cc4ccccc4)CC3)n2CC(=O)c2ccccc2)n(C)c1=O [CBK236846] | 92.2096
48 | O=C(c1cccc([N+](=O)[O-])c1)N1CCN(S(=O)(=O)N2CCOCC2)CC1 [CBK267469] | 88.1594
49 | O=C(N1CCC=C(F)C1)C12CCOCC1CN(c1ncccn1)C2 (stereo not shown) [CBK304264] | 86.2899
50 | CN(C)c1ccc(-c2cc(N3CCN(S(=O)(=O)c4ccc(Cl)cc4)CC3)ncn2)cc1 [CBK091158] | 105.04
51 | CSc1nsc(SCC(=O)c2cc3ccccc3oc2=O)n1 [CBK268833] | 108.213
52 | CN(C)Cc1cc(-c2ccccc2F)nn1CCNC(=O)C1CC1 [CBK282006] | 110.019
53 | O=C1S/C(=C/c2ccc(Cl)cc2)C(=O)N1c1ccc(F)cc1 [CBK113265] | 75.4041
54 | OCCN1CC2(CCN(Cc3cccc4cccnc34)CC2)c2ccccc21 [CBK137014] | 83.9768
55 | COC(=O)CCC(=O)N1CCC(Cn2cncn2)(C2CCCCC2)CC1 [CBK136810] | 74.6757
56 | CN(C)CCN1C(=O)CCc2ccccc21 [CBK023390C] | 15.0982
57 | OC(Cc1ccccc1)c1cc2n(n1)CCN(Cc1ccsc1)C2 (stereo not shown) [CBK307603] | 95.8049
58 | O=C(NCc1ccc2c(c1)OCO2)C1CN(S(=O)(=O)c2ccccc2)CCN1S(=O)(=O)c1ccccc1 (stereo not shown) [CBK267059] | 129.072
59 | O=C1c2ccccc2C2OCc3ccccc3N12 (stereo not shown) [CBK109952] | 99.0078
60 | Cc1ccc2nc(C)cc(NCCO)c2c1 [CBK126909] | 62.2148
61 | O=C(NCCCCn1ccnc1)c1noc2c1CCCC2 [CBK283208] | 108.861
62 | COc1ccc(N2CCN(c3cc(-c4ccccc4OCc4ccccc4)ncn3)CC2)cc1OC [CBK091024] | 74.7657
63 | CCOC(=O)CC(O)(c1ccc(OC)cc1)c1cc(C)no1 (stereo not shown) [CBK023133] | 75.5359

Row | SMILES | % of control remaining
64 | CN(C)CCN1CCN(c2cccc(-c3ccc(-c4ccccc4)cc3)n2)CC1 [CBK037610] | 89.4366
65 | C=CCn1c(C)c(CN2CCc3c(nc(C)[nH]c3=O)C2)c2ccccc21 [CBK283990] | 94.5316
66 | CCCn1nccc1C(=O)NC1CCCN(Cc2cccc(OC)c2)C1 (stereo not shown) [CBK306563] | 51.9375
67 | CCn1cc(S(=O)(=O)NCc2ccccc2F)cn1 [CBK270306] | 74.7979
68 | Cc1cc(C(=O)NCc2cccnc2N(C)C2CCCCC2)[nH]n1 [CBK306668] | 75.9945
69 | O=C(c1cccnc1)C1CCN(C(=O)Cc2ccccc2Cl)CC1 [CBK283690] | 88.6253
70 | CC(C)(C)c1nnc(NCC2CCCCC2)s1 [CBK075043] | 104.424
71 | O=C(N[C@H]1C[C@H](c2nnc(CO)n2C2CC2)C1)c1ccc(Cl)c(F)c1 [CBK307093] | 104.553
72 | C=CCNC(=O)N[C@H]1C[C@H]2C(=O)Nc3cc(Cl)ccc3C(=O)N2C1 [CBK289365] | 88.2069
73 | O=C(O)CCCC(=O)Nc1ccccc1C(=O)NCc1ccco1 [CBK299840] | 113.25
74 | O=C(O)C1CC(=O)N(Cc2ccccc2)C1c1ccccc1 (stereo not shown) [CBK286876] | 90.3044
75 | CC1CN(Cc2nc3c(c(=O)n(C)c(=O)n3C)n2CCCc2ccccc2)CC(C)O1 (stereo not shown) [CBK269349] | 87.1832
76 | CCCCC(c1cccnc1)N(C)C(=O)Cn1ccccc1=O (stereo not shown) [CBK306936] | 38.9217
77 | COc1cc(-c2nc(C(C)=O)c(C)n2O)cc(OC)c1OC [CBK270083] | 87.8938
78 | Clc1ccc(-n2ncc(-c3ccsc3)n2)cc1Cl [CBK112843] | 91.4621
79 | Cc1nc(-c2ccc(NC(=O)CC(C)n3cccn3)cc2)cs1 (stereo not shown) [CBK281403] | 115.051
80 | Cc1cc2c(s1)c1cnn(CC(=O)N3CCCCC3)c(=O)c1n2C [CBK284187] | 73.8975
81 | O=C(NCc1cccnc1)c1ccc(-c2cccc(Cl)c2Cl)o1 [CBK112211] | 85.1894
82 | O=C(Nc1nc(-c2ccccc2)ns1)c1ccncc1 [CBK113234] | 113.329
